Assay results as given in PubChem BioAssay AID624296 (National Center for Advancing Translational Sciences (NCATS), 2012).
Out of some 350,000 compounds screened, about 9,900 (2.8%) were called active. Inconclusive means that the source gave no clear call. Such entries were picked first, then a sample of the others. The call rests on the fitted dose curve; in most records, active means well fitted activation curve with a large enough effect; inconclusive means small, poorly fitted or top-dose-only effect; inactive means no such curve, though single readings can be large or run the other way. Potencies of inconclusive entries are left out as doubtful fits.

Test: A quantitative high throughput screen for small molecules that induce DNA re-replication in MCF 10a normal breast cells. Further: nearly all actives have a fitted effect of over 50% in size. On activity, positive = re-replication: % of control where 0% means no effect.
Conditions: MCF 10A DNA re-replication, Hoechst nuclear intensity, 48 h; activity, positive = re-replication: at 46.1 µM (top of the series)
Potency means the concentration at half of the fitted maximal effect; tags describe the fitted curve by direction and shape.

Q: Which “activity, positive = re-replication” value does the source give for `Cc1nc(-c2cccc(NC(=O)C3CCCCC3)c2)cs1` here?
A: Its value is inactive: 7.24%.

Q: Which Potency does the source give for `Oc1ccc(Nc2nc(N3CCCC3)c3ccccc3n2)cc1` here?
A: The Potency was inconclusive [activator, single point].

Q: Which Potency does the source give for `CCOc1cc(N2CCOCC2)c(OCC)cc1NC(=O)c1nn(CC)c(=O)c2ccccc12` here?
A: The Potency was inconclusive [activator, single point].

Q: With `CC1=CC(C)C(/C=N/N=C(N)N)C(C)C1` (stereo not drawn) as the compound, how does the Potency read?
A: The Potency was inconclusive [activator, partial curve, poor fit].

Q: For `N#Cc1c(-c2ccccc2)[nH]c(=O)[nH]c1=O`, which “activity, positive = re-replication” value is on record?
A: The value was inactive: 1.14%.

Q: With `c1ccc(Cn2ncc3c(NCc4ccco4)ncnc32)cc1` as the compound, how does the “activity, positive = re-replication” value read?
A: The value was inactive: -6.08%.

Q: With `O=S(=O)(c1ccccc1)C(/C=N\O)/C=C/c1ccccc1` (stereo not drawn) as the compound, how does the Potency read?
A: The Potency was inconclusive [activator, single point].

Q: With `CC(C(=O)Nc1ccccc1)N1CCN(C(=O)c2ccco2)CC1` (stereo not drawn) as the compound, how does the “activity, positive = re-replication” value read?
A: Its value is inactive: -3.3%.

Q: For `O=C1CS(=O)(=O)N(Cc2ccc(F)cc2)c2ccccc21`, which Potency is on record?
A: The Potency was inconclusive [activator, partial curve, poor fit].

Q: For `CCOC(=O)C1CCCN(C(=O)c2cc(-c3ccc(C)cc3)nc3ccccc23)C1` (stereo not drawn), which Potency is on record?
A: Its Potency is inconclusive [activator, single point].

Q: Which Potency does the source give for `CN(C)C(=N)N=C(N)N` here?
A: The Potency was inconclusive [activator, full curve, poor fit].

Q: For `c1ccc2c(-c3cc(C4CCNCC4)[nH]n3)cccc2c1`, which Potency is on record?
A: The Potency was inconclusive [activator, single point].

Q: With `CC1CCCC(C)N1C(=O)COC(=O)c1cccc(S(=O)(=O)N(C)c2ccccc2)c1` (stereo not drawn) as the compound, how does the “activity, positive = re-replication” value read?
A: Its value is inactive: 17%.

Q: With `CC1CC1C(=O)Nc1nc(-c2ccc(Cl)s2)cs1` (stereo not drawn) as the compound, how does the “activity, positive = re-replication” value read?
A: Its value is inactive: 10.3%.

Q: With `Cc1cc(C)n2c3c(c(C#N)c2n1)CCCC3` as the compound, how does the Potency read?
A: Its Potency is inconclusive [activator, partial curve, poor fit].

Q: For `COc1ccc(C(=O)O/N=C(\N)Cc2ccc(Cl)cc2)cc1OC`, which Potency is on record?
A: The Potency was inconclusive [activator, single point].

Q: For `CC(C)C(c1nnnn1Cc1ccccc1)N1CCc2ccccc2C1` (stereo not drawn), which “activity, positive = re-replication” value is on record?
A: Its value is inactive: 20.3%.

Q: For `CC(C)c1nnc(NC(=O)C2CCCN2S(=O)(=O)c2ccc(Cl)cc2)s1` (stereo not drawn), which “activity, positive = re-replication” value is on record?
A: Its value is inactive: -0.485%.

Q: Which Potency does the source give for `CSc1ccccc1C(=O)Nc1cccc(C(C)=O)c1` here?
A: Its Potency is inconclusive [activator, single point].

Q: For `CC(O)CNc1nc2ccccc2n1-c1ncnc2sc3c(c12)CCC3` (stereo not drawn), which “activity, positive = re-replication” value is on record?
A: Its value is inactive: 20.5%.

Q: With `COc1ccc(CN(C)C2c3ccccc3-c3ccccc32)cc1` as the compound, how does the Potency read?
A: Its Potency is inconclusive [activator, single point].

Q: Which Potency does the source give for `COc1ccc(Cl)cc1C(=O)NNC(=O)COC(=O)c1cccs1` here?
A: The Potency was inconclusive [activator, partial curve, poor fit].

Q: With `O=C1CC(/C=C/c2ccccn2)=Nc2ccccc2N1` as the compound, how does the “activity, positive = re-replication” value read?
A: Its value is inactive: -1.39%.

Q: For `Cc1ccc(-c2cc(C(F)(F)F)n3nc(C(=O)NCCCn4ccnc4)cc3n2)cc1C`, which Potency is on record?
A: The Potency was active: 14.6 µM.

Q: Which Potency does the source give for `CCC(Sc1nc2ccccc2o1)C(=O)Nc1nnc(C)s1` (stereo not drawn) here?
A: Its Potency is inconclusive [activator, partial curve, poor fit].

Q: For `COCCNC(=O)c1c(N)n(CCCn2ccnc2)c2nc3ccccc3nc12`, which Potency is on record?
A: Its Potency is active: 11.6 µM.

Q: For `O=C(Nc1ccccc1)N1CCc2ccccc21`, which “activity, positive = re-replication” value is on record?
A: Its value is inactive: 13.3%.

Q: Which Potency does the source give for `Cc1cnccc1CN(C)C(=O)C1CCC(=O)N(Cc2ccccc2F)C1` (stereo not drawn) here?
A: Its Potency is inconclusive [activator, single point].

Q: For `Cc1ccc(OCC(=O)NCCNC(=O)c2ccc(C)nc2)cc1`, which Potency is on record?
A: The Potency was inconclusive [activator, partial curve, poor fit].

Q: For `O=C(Nc1ccc(S(=O)(=O)NC2=NCCCCC2)cc1)c1ccc([N+](=O)[O-])s1`, which Potency is on record?
A: Its Potency is inconclusive [activator, single point].

Q: With `Cc1ccc(SCC(=O)Nc2ccc3c(c2)C(=O)N(C)C3=O)cc1` as the compound, how does the “activity, positive = re-replication” value read?
A: Its value is inactive: 2.8%.

Q: Which “activity, positive = re-replication” value does the source give for `CC(=O)Nc1c(Br)cc2c(c1Br)C(=O)c1ccccc1-2` here?
A: The value was inactive: 10.1%.

Q: For `COc1ccc(Cc2nnc(SCC(=O)c3ccccc3)o2)cc1`, which Potency is on record?
A: Its Potency is inconclusive [activator, single point].

Q: With `CCCCC(=O)NNC(=S)NC(=O)c1cccc([N+](=O)[O-])c1` as the compound, how does the “activity, positive = re-replication” value read?
A: Its value is inactive: -0.968%.

Q: For `COc1cc(CNCCSc2nnnn2C)cc(Br)c1OCc1ccccc1`, which Potency is on record?
A: Its Potency is inconclusive [activator, single point].

Q: With `CCCCN(C)C1=Nc2cccc3cccc1c23` as the compound, how does the Potency read?
A: Its Potency is inconclusive [activator, single point].

Q: Which “activity, positive = re-replication” value does the source give for `CCc1ccccc1NC(=O)Nc1cnccn1` here?
A: The value was inactive: 13.9%.

Q: For `O=C(Nc1ccc(C(=O)O)cc1)/C(=C\c1ccc2c(c1)OCO2)NC(=O)c1ccccc1`, which “activity, positive = re-replication” value is on record?
A: Its value is inactive: 2.66%.

Q: For `Cc1ccc(CNC(=O)N2CCN(S(=O)(=O)c3ccccc3)CC2)cc1`, which Potency is on record?
A: The Potency was inconclusive [activator, partial curve, poor fit].

Q: With `Cc1ccc2cc3c(NC(=O)CC(C)C)nn(C)c3nc2c1` as the compound, how does the Potency read?
A: Its Potency is inconclusive [activator, single point].

Q: For `COc1ccc(NC(=O)CN(c2ccccc2OC)S(=O)(=O)c2cccs2)cc1Cl`, which Potency is on record?
A: Its Potency is inconclusive [activator, single point].

Q: For `COc1ccccc1Sc1nc(-c2ccccc2)ncc1OC`, which Potency is on record?
A: Its Potency is inconclusive [activator, single point].

Q: For `O=S(=O)(Nc1nc2ccccc2nc1Nc1ccc2c(c1)OCO2)c1ccccc1`, which “activity, positive = re-replication” value is on record?
A: Its value is inactive: 8.54%.

Q: With `Cc1cccc(NC(=S)N=Nc2c(O)[nH]c3ccccc23)c1` as the compound, how does the Potency read?
A: Its Potency is active: 6.51 µM.

Q: Which Potency does the source give for `Cc1cccc(C)c1NC(=S)N=Nc1c(O)n(C)c2ccc(S(=O)(=O)N3CCOCC3)cc12` here?
A: Its Potency is inconclusive [activator, full curve].

Q: Which Potency does the source give for `O=C(NCc1cccc(C(F)(F)F)c1)C1CC(c2c(Cl)cccc2Cl)=NO1` (stereo not drawn) here?
A: Its Potency is inconclusive [activator, single point].

Q: For `COc1ccc(NS(=O)(=O)c2cccc(C(=O)N(C)CC(=O)Nc3ccc(C)cc3)c2)cc1`, which Potency is on record?
A: Its Potency is inconclusive [activator, partial curve, poor fit].

Q: For `O=c1cc(-c2ccccc2)oc2cc(OCc3ccccc3)cc(O)c12`, which Potency is on record?
A: The Potency was inconclusive [activator, single point].
